# Over roughly 81,000 sequences, “one-hybrid fitness for binding NBS DNA” has its median near -0.1; the highest 2% begin near 0.36. Some of the results follow.
# B1: Caulobacter ParB omega fusion; a variant is named by its letters at X, in order, B8GW30 (parent)
# chain: MESVVVGEPGMSEGRRGLGRGLSALLGEVDAAPAQAPGEQLGGSREAPIEILQRNPDQPRRTFREEDLEDLSNSIREKGVLQPILVRPSPDTAGEYQIVAGERAWRAAQRAGLKTVPIMVRELDDLAVLEIGIIENVQRADLNVLEEALSYKVLMEKFERTQENIAQTIGKSXSHVANXMRLLXLPDEVQSYLVSGELTAXHARAIAAAADPVALAKQIIEGGLSVRETEALARKAPNLSAGKSKGGRPPRVKDTDTQALESDLSSVLGLDVSIDHRGSTGTLTITYATLEQLDDLCNRLTRGI
# Variants of: B1
# Assay: one-hybrid fitness for binding NBS DNA (the Noc-binding site; scaled: cognate 1, non-cognate 0); higher = stronger binding
# Details: with NBS DNA site
# How it was run: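 Fitness here means the log change in variant-to-wild-type read ratio between plasmids sequenced before and after selection. That scale was set so cognate equals 1 and non-cognate equals 0. The selection was a bacterial one-hybrid screen of Caulobacter ParB libraries, four specificity codons randomised, in E. coli USO carrying a HIS3 reporter with the site 19 bp from the promoter, grown 48 hours at 37°C on M9-minus-histidine with 0.1 mM IPTG and 5 mM 3-AT.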
row,Variant,one-hybrid fitness for binding NBS DNA
1,RVYL,≤ 0.2
2,PDAG,≤ 0.2
3,CAQC,≤ 0.2
4,MWQL,≤ 0.2
5,EKLF,≤ 0.2
6,IFLS,≤ 0.2
7,QDLG,≤ 0.2
8,PAMM,≤ 0.2
9,QAQI,≤ 0.2
10,WGTP,≤ 0.2
11,DHST,≤ 0.2
12,LVLW,≤ 0.2
13,ELKN,≤ 0.2
14,DVPW,≤ 0.2
15,LMFV,≤ 0.2
16,HNVG,≤ 0.2
17,FLVE,≤ 0.2
18,IKDR,≤ 0.2
19,NSCC,≤ 0.2
20,RRQH,0.447
21,VHKI,≤ 0.2
22,TTDQ,≤ 0.2
23,MNTQ,≤ 0.2
24,DRDT,≤ 0.2

row,Variant,one-hybrid fitness for binding NBS DNA
1,CARF,≤ 0.2
2,NPWD,≤ 0.2
3,GTAT,≤ 0.2
4,LKQC,≤ 0.2
5,WNLV,≤ 0.2
6,ATCT,≤ 0.2
7,SSKK,≤ 0.2
8,YPNR,≤ 0.2
9,DRMN,≤ 0.2
10,AWSI,≤ 0.2
11,WRLA,≤ 0.2
12,HALR,≤ 0.2
13,LSVL,≤ 0.2
14,QSWE,≤ 0.2
15,HYGY,≤ 0.2
16,WTFA,≤ 0.2
17,DYCC,≤ 0.2
18,TRAM,≤ 0.2
19,DELG,≤ 0.2
20,AFDM,≤ 0.2
21,RRHW,≤ 0.2
22,APDE,≤ 0.2
23,HSHG,≤ 0.2
24,TAKE,≤ 0.2

row,Variant,one-hybrid fitness for binding NBS DNA
1,WMMC,≤ 0.2
2,ARNH,≤ 0.2
3,RRER,0.629
4,QGGK,≤ 0.2
5,DYDG,≤ 0.2
6,QQKG,0.437
7,CKIS,≤ 0.2
8,AEAS,≤ 0.2
9,NYFG,≤ 0.2
10,TFKD,≤ 0.2
11,KLDC,≤ 0.2
12,MKYF,0.356
13,HTIK,≤ 0.2
14,LGAT,≤ 0.2
15,KSMA,≤ 0.2
16,VILR,≤ 0.2
17,QLWG,≤ 0.2
18,TRFQ,≤ 0.2
19,TAKV,≤ 0.2
20,VGTM,≤ 0.2
21,PRAW,≤ 0.2
22,LLPS,≤ 0.2
23,HMVF,≤ 0.2
24,IVAC,≤ 0.2

row,Variant,one-hybrid fitness for binding NBS DNA
1,HLKI,≤ 0.2
2,NGAR,≤ 0.2
3,LWEG,≤ 0.2
4,APKV,≤ 0.2
5,RKGW,≤ 0.2
6,HLKR,≤ 0.2
7,SKVT,≤ 0.2
8,QAHL,≤ 0.2
9,KMMC,≤ 0.2
10,GHCT,≤ 0.2
11,FWRM,≤ 0.2
12,VDQE,≤ 0.2
13,VQWG,≤ 0.2
14,RHPQ,≤ 0.2
15,YEEA,≤ 0.2
16,GMHC,≤ 0.2
17,SFSG,≤ 0.2
18,HFRV,≤ 0.2
19,KFAV,≤ 0.2
20,GLIR,≤ 0.2
21,QVVS,≤ 0.2
22,ARPI,≤ 0.2
23,KMSR,≤ 0.2
24,AENS,≤ 0.2

row,Variant,one-hybrid fitness for binding NBS DNA
1,LTHA,≤ 0.2
2,RLWA,≤ 0.2
3,ESSE,≤ 0.2
4,MCHL,≤ 0.2
5,ANFR,≤ 0.2
6,KNLR,≤ 0.2
7,VEDV,≤ 0.2
8,AVPF,≤ 0.2
9,QCWT,0.461
10,QCHA,0.422
11,SFWQ,≤ 0.2
12,SHGT,≤ 0.2
13,REMH,≤ 0.2
14,TQIY,≤ 0.2
15,GGDR,≤ 0.2
16,IYMS,≤ 0.2
17,AYIG,≤ 0.2
18,ATDL,≤ 0.2
19,RLKN,≤ 0.2
20,YTRF,≤ 0.2
21,TMDS,≤ 0.2
22,SDVL,≤ 0.2
23,DIND,≤ 0.2
24,YGVW,≤ 0.2

row,Variant,one-hybrid fitness for binding NBS DNA
1,QDTN,≤ 0.2
2,VWLT,≤ 0.2
3,SPFM,≤ 0.2
4,IWKT,≤ 0.2
5,QTQT,0.577
6,RTRL,≤ 0.2
7,QWKC,≤ 0.2
8,HICC,≤ 0.2
9,RAGK,≤ 0.2
10,QKII,≤ 0.2
11,PNMC,≤ 0.2
12,ASNI,≤ 0.2
13,TWFT,≤ 0.2
14,MDFR,≤ 0.2
15,PYAL,≤ 0.2
16,CGHC,≤ 0.2
17,PAML,≤ 0.2
18,RNMV,≤ 0.2
19,NVGG,≤ 0.2
20,TKTC,≤ 0.2
21,SNSD,≤ 0.2
22,LTKP,≤ 0.2
23,RKYG,≤ 0.2
24,EKRC,≤ 0.2

row,Variant,one-hybrid fitness for binding NBS DNA
1,GFIS,≤ 0.2
2,HPVE,≤ 0.2
3,QCGA,0.364
4,ATIV,≤ 0.2
5,GPSC,≤ 0.2
6,LNNR,≤ 0.2
7,SNPA,≤ 0.2
8,RQTV,≤ 0.2
9,SGQH,≤ 0.2
10,RRAD,≤ 0.2
11,TPPT,≤ 0.2
12,KRTS,0.448
13,KKKK,≤ 0.2
14,TVYC,≤ 0.2
15,QNST,≤ 0.2
16,LDLI,≤ 0.2
17,FDHL,≤ 0.2
18,HSYD,≤ 0.2
19,RGKM,≤ 0.2
20,HSTK,≤ 0.2
21,TTGT,≤ 0.2
22,EELL,≤ 0.2
23,RAYR,0.412
24,KSCC,≤ 0.2

row,Variant,one-hybrid fitness for binding NBS DNA
1,HSFC,≤ 0.2
2,RLPW,≤ 0.2
3,RRHE,≤ 0.2
4,THHG,≤ 0.2
5,CNKR,≤ 0.2
6,EVPA,≤ 0.2
7,EAKR,0.3
8,ICWS,≤ 0.2
9,RASM,≤ 0.2
10,NVVG,≤ 0.2
11,SHHR,≤ 0.2
12,LMMM,≤ 0.2
13,CMGL,≤ 0.2
14,IINT,≤ 0.2
15,RQYK,≤ 0.2
16,HMVG,≤ 0.2
17,RWQD,≤ 0.2
18,RRAK,0.254
19,QKCW,≤ 0.2
20,FADA,≤ 0.2
21,KASP,≤ 0.2
22,RIIQ,≤ 0.2
23,IGTS,≤ 0.2
24,RCDF,≤ 0.2

row,Variant,one-hybrid fitness for binding NBS DNA
1,RVGC,≤ 0.2
2,LKNT,≤ 0.2
3,LEPL,≤ 0.2
4,SQPL,≤ 0.2
5,THNL,≤ 0.2
6,RKAF,≤ 0.2
7,ELRE,≤ 0.2
8,IWLS,≤ 0.2
9,GHVD,≤ 0.2
10,QPHW,≤ 0.2
11,SADL,≤ 0.2
12,FQLG,≤ 0.2
13,DLCR,≤ 0.2
14,ANTS,≤ 0.2
15,NPPR,0.218
16,GTQT,≤ 0.2
17,PCEL,≤ 0.2
18,KCDS,≤ 0.2
19,CHYD,≤ 0.2
20,AADF,≤ 0.2
21,QQCT,0.528
22,PLVD,≤ 0.2
23,MRYT,≤ 0.2
24,SFRC,≤ 0.2

row,Variant,one-hybrid fitness for binding NBS DNA
1,RRRI,0.451
2,CWLR,≤ 0.2
3,KAPS,≤ 0.2
4,HASR,≤ 0.2
5,WLKR,≤ 0.2
6,ELTI,≤ 0.2
7,RPDV,≤ 0.2
8,RLNA,0.218
9,QHGP,≤ 0.2
10,KGPT,≤ 0.2
11,WKTV,≤ 0.2
12,TRTL,≤ 0.2
13,PWAG,≤ 0.2
14,FKNR,≤ 0.2
15,QMRN,0.439
16,AHGE,≤ 0.2
17,RASR,0.417
18,DEVR,≤ 0.2
19,CCRA,≤ 0.2
20,PLTS,≤ 0.2
21,QSSN,≤ 0.2
22,YTSM,≤ 0.2
23,MAKW,≤ 0.2
24,VGWS,≤ 0.2

row,Variant,one-hybrid fitness for binding NBS DNA
1,RIIM,≤ 0.2
2,SSFR,≤ 0.2
3,QIKE,≤ 0.2
4,LSDG,≤ 0.2
5,WMNV,≤ 0.2
6,GEYT,≤ 0.2
7,ARIL,≤ 0.2
8,AHSI,≤ 0.2
9,FLMR,≤ 0.2
10,RMNE,≤ 0.2
11,QRTG,0.356
12,RSFC,≤ 0.2
13,PWVY,≤ 0.2
14,RKDW,≤ 0.2
15,LVWD,≤ 0.2
16,WLNC,≤ 0.2
17,QMGA,0.253
18,VIAN,≤ 0.2
19,MVSA,≤ 0.2
20,QTGD,≤ 0.2
21,PVRT,≤ 0.2
22,RVEG,≤ 0.2
23,AAHL,≤ 0.2
24,QLCL,≤ 0.2

row,Variant,one-hybrid fitness for binding NBS DNA
1,PLDG,≤ 0.2
2,VNNN,≤ 0.2
3,SGVI,≤ 0.2
4,FQTG,≤ 0.2
5,TDNR,≤ 0.2
6,NVGC,≤ 0.2
7,PWRY,≤ 0.2
8,MTAT,≤ 0.2
9,VAGM,≤ 0.2
10,ACVT,≤ 0.2
11,HVGP,≤ 0.2
12,KQCR,≤ 0.2
13,REAV,≤ 0.2
14,VRHL,≤ 0.2
15,DHVA,≤ 0.2
16,SCTK,≤ 0.2
17,YQVR,≤ 0.2
18,EPFR,≤ 0.2
19,WVKT,≤ 0.2
20,IVIR,≤ 0.2
21,RFPA,≤ 0.2
22,HRTC,≤ 0.2
23,FRLK,≤ 0.2
24,LFMS,≤ 0.2

row,Variant,one-hybrid fitness for binding NBS DNA
1,LTMF,≤ 0.2
2,QYYA,0.271
3,PQAE,≤ 0.2
4,ATSY,≤ 0.2
5,AYTR,≤ 0.2
6,RLFN,≤ 0.2
7,AQCR,≤ 0.2
8,WCER,≤ 0.2
9,TDYL,≤ 0.2
10,YNSV,≤ 0.2
11,VIDN,≤ 0.2
12,YNRM,≤ 0.2
13,QTPL,≤ 0.2
14,HMQS,≤ 0.2
15,GMER,≤ 0.2
16,RQEV,≤ 0.2
17,WLPT,≤ 0.2
18,MDPA,≤ 0.2
